{"source": "paper PMC4336329", "about": "(PLoS ONE, 2015)", "note": "About 2,200 (0.71%) of roughly 310,000 compounds showed an effect of 50% or more. The effect is printed as a negative number. Some of the results follow.", "data": [{"biological_target": "human ether-à-go-go-related gene (hERG) potassium channel (human, UniProt Q12809)", "sequence (Q12809 whole entry, looked up)": "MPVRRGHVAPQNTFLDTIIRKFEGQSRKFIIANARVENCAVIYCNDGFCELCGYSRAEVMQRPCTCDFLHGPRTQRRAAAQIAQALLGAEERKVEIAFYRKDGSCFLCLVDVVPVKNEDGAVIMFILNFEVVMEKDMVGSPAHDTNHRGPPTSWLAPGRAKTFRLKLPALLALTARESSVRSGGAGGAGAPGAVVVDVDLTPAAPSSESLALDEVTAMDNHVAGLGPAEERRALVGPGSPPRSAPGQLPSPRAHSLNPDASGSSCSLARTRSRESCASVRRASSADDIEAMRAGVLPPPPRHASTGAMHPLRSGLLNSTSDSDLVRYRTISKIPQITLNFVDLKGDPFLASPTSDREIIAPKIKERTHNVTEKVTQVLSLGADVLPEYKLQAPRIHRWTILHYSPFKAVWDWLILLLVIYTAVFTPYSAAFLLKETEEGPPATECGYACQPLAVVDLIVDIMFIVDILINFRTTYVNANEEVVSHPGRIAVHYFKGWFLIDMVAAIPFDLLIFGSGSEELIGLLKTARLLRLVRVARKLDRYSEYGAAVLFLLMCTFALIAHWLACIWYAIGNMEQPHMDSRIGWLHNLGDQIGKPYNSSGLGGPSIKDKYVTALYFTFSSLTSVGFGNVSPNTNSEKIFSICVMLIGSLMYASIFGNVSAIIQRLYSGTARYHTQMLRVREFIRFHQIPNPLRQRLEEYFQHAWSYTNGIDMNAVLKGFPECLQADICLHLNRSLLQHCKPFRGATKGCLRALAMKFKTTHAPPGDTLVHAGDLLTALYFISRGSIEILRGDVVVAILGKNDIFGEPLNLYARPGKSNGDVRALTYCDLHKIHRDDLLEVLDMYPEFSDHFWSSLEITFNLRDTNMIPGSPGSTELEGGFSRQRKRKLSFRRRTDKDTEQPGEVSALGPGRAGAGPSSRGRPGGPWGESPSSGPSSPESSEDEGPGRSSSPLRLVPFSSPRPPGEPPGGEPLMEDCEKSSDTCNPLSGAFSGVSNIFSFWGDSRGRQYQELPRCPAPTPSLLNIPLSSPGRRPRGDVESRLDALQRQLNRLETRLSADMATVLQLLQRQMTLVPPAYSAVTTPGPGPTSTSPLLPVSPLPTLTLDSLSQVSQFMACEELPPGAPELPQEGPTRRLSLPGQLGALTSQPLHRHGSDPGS", "assay": "primary screen, population patch clamp on CHO cells stably expressing hERG", "units": {"hERG current change (%, negative = inhibition) at 1uM": "%"}, "values": [{"smiles": "COc1ccccc1OCCNC(=O)c1ccc(S(=O)(=O)N(C)C)cc1", "hERG current change (%, negative = inhibition) at 1uM": 13.4}, {"smiles": "O=c1oc(Nc2cccc(Cl)c2)nc2ccccc12", "hERG current change (%, negative = inhibition) at 1uM": 7.76}, {"smiles": "Cc1cc(C)n2nc(C(=O)N/N=C/C=C/c3ccccc3)nc2n1", "hERG current change (%, negative = inhibition) at 1uM": -1.91}, {"smiles": "C=CCCCCc1nc2ccccc2c(=O)n1N", "hERG current change (%, negative = inhibition) at 1uM": 6.45}, {"smiles": "Cc1cccc(C)c1OCCn1nc(C(=O)O)c2ccccc2c1=O", "hERG current change (%, negative = inhibition) at 1uM": 13.1}, {"smiles": "CNc1nc2c(c(=O)n(C)c(=O)n2C)n1Cc1ccccc1", "hERG current change (%, negative = inhibition) at 1uM": 3.64}, {"smiles": "Cc1ccc(CCNC(=O)CS(=O)Cc2nc(-c3ccccc3F)oc2C)cc1", "note": "(stereo not drawn)", "hERG current change (%, negative = inhibition) at 1uM": 7.76}, {"smiles": "CC(O/N=C/c1ccc(OC(F)F)cc1)C(=O)Nc1cccc(S(=O)(=O)N2CCOCC2)c1", "note": "(stereo not drawn)", "hERG current change (%, negative = inhibition) at 1uM": -17.4}, {"smiles": "Cc1ccc(NC(=O)N/C=C/c2ccco2)c(C)c1", "hERG current change (%, negative = inhibition) at 1uM": -5.2}, {"smiles": "CC1CCCCN1C(=O)COC(=O)c1cc([N+](=O)[O-])ccc1N1CCOCC1", "note": "(stereo not drawn)", "hERG current change (%, negative = inhibition) at 1uM": -10.6}, {"smiles": "COc1ccc(-n2c(C)c(C)c3c(NCCCO)ncnc32)cc1", "hERG current change (%, negative = inhibition) at 1uM": 11.6}, {"smiles": "Cc1cccc(C=Nc2ccccc2C(N)=O)c1", "hERG current change (%, negative = inhibition) at 1uM": 15.2}, {"smiles": "Cc1c(C(=O)Nc2ccc(Cl)cc2)c2ccccn2c1C(=O)c1ccccc1", "hERG current change (%, negative = inhibition) at 1uM": 16.8}, {"smiles": "Brc1ccc(CSc2nccn2-c2ccccc2)cc1", "hERG current change (%, negative = inhibition) at 1uM": 5.22}, {"smiles": "Cc1nn2c(NC(C)C)c3c(nc2c1-c1ccccc1)CCC3", "hERG current change (%, negative = inhibition) at 1uM": 12.9}, {"smiles": "COc1cccc(C(=O)N/N=c2\\sc3ccccc3n2C)c1", "hERG current change (%, negative = inhibition) at 1uM": 4.9}, {"smiles": "COC(=O)c1cnn(-c2ccccc2)c1/C=N/NC(=S)Nc1ccccc1", "hERG current change (%, negative = inhibition) at 1uM": 9.35}, {"smiles": "Cc1cc(C(=O)OCC(=O)NCc2ccccc2Cl)c(C)o1", "hERG current change (%, negative = inhibition) at 1uM": 14.7}, {"smiles": "COc1ccccc1/C=N/Nc1cc(C)nc(N2CCOCC2)n1", "hERG current change (%, negative = inhibition) at 1uM": 14.8}, {"smiles": "CNC(=O)CS(=O)(=O)CC(=O)Nc1cc(OC(C)C)c(Cl)cc1Cl", "hERG current change (%, negative = inhibition) at 1uM": 16.5}, {"smiles": "COc1c(C)cc(C(=O)C2CCCN(C(=O)CCc3scnc3C)C2)cc1C", "note": "(stereo not drawn)", "hERG current change (%, negative = inhibition) at 1uM": 5.5}, {"smiles": "O=C(NCc1ccco1)/C(=C\\c1ccco1)NC(=O)c1ccccc1Cl", "hERG current change (%, negative = inhibition) at 1uM": -3.6}, {"smiles": "NC(=O)CCn1nc(-c2ccc(Cl)cc2)c2ccccc2c1=O", "hERG current change (%, negative = inhibition) at 1uM": -3.42}, {"smiles": "Cc1ccc(-c2nn3c(C)nnc3s2)cc1NC(=O)c1cccs1", "hERG current change (%, negative = inhibition) at 1uM": 1.48}, {"smiles": "COc1ccc(C)cc1S(=O)(=O)N1CCN(S(=O)(=O)c2cc(C)ccc2OC)C(C)C1", "note": "(stereo not drawn)", "hERG current change (%, negative = inhibition) at 1uM": 14}, {"smiles": "COc1ccc(Cc2nnc(NC(=O)CS(=O)(=O)c3ccccc3)s2)cc1OC", "hERG current change (%, negative = inhibition) at 1uM": 16.4}, {"smiles": "CCCN1CCC(=NNC(=O)c2ccc(Br)o2)CC1", "hERG current change (%, negative = inhibition) at 1uM": 3.44}, {"smiles": "COc1ccc(CNC(=O)C[C@H]2C(=O)N(C3CCCCC3)C[C@@H]2Cc2ccccc2)cc1", "hERG current change (%, negative = inhibition) at 1uM": -2.93}, {"smiles": "COc1ccc(S(=O)(=O)n2nc(-c3cc(OC)c(OC)c(OC)c3)cc2N)cc1OC", "hERG current change (%, negative = inhibition) at 1uM": 14.1}, {"smiles": "CSCCC(NC(=O)COc1ccccc1)C(=O)OCCOc1ccc(C)cc1", "note": "(stereo not drawn)", "hERG current change (%, negative = inhibition) at 1uM": 4.56}, {"smiles": "CC(OC(=O)CCN1C(=O)C2CC=CCC2C1=O)C(=O)Nc1cccc(C#N)c1", "note": "(stereo not drawn)", "hERG current change (%, negative = inhibition) at 1uM": -1.34}, {"smiles": "CC1(C)CC(=O)c2ccc(OCc3ccc([N+](=O)[O-])cc3)cc2O1", "hERG current change (%, negative = inhibition) at 1uM": -8.5}, {"smiles": "COC(=O)c1ccc(COc2ccccc2/C=C/C(=O)c2ccc(OCC(=O)O)cc2)cc1", "hERG current change (%, negative = inhibition) at 1uM": 4.94}, {"smiles": "Cc1ccc(N(CC(=O)NCc2ccccn2)S(=O)(=O)c2ccccc2)cc1C", "hERG current change (%, negative = inhibition) at 1uM": 6.32}, {"smiles": "Cc1noc(C)c1COC(=O)/C=C/c1ccc(Cl)cc1", "hERG current change (%, negative = inhibition) at 1uM": 15.2}, {"smiles": "CN(C)CCCNC1=CC(=O)OC12CCCCC2", "hERG current change (%, negative = inhibition) at 1uM": 2.34}, {"smiles": "CC1CCCC(C)N1C(=O)CN1C(=O)c2ccccc2S1(=O)=O", "note": "(stereo not drawn)", "hERG current change (%, negative = inhibition) at 1uM": 5.94}, {"smiles": "O=C(Nc1ccc(NC(=O)c2cccs2)cn1)c1ccccc1", "hERG current change (%, negative = inhibition) at 1uM": 12.8}, {"smiles": "CC1CN(S(=O)(=O)c2cccc(-c3cn4ccccc4n3)c2)CC(C)O1", "note": "(stereo not drawn)", "hERG current change (%, negative = inhibition) at 1uM": 5.51}, {"smiles": "Nc1nc(-c2ccc(F)cc2)cc(C(F)(F)F)n1", "hERG current change (%, negative = inhibition) at 1uM": 17.6}, {"smiles": "O=C(COC(=O)/C=C/c1ccccc1[N+](=O)[O-])NC1CC1", "hERG current change (%, negative = inhibition) at 1uM": 6.43}, {"smiles": "CNC(=S)Nc1cccc(Cl)c1C", "hERG current change (%, negative = inhibition) at 1uM": 6.78}, {"smiles": "Cc1cc2oc(=O)cc(CN(C)Cc3cccc(F)c3)c2cc1Cl", "hERG current change (%, negative = inhibition) at 1uM": 11.7}, {"smiles": "O=C(CCN1CCN(c2ccccc2)CC1)Nc1ccc2c(c1)OCO2", "hERG current change (%, negative = inhibition) at 1uM": -1.29}, {"smiles": "O=C(Nc1ccccc1)c1n[nH]c(Cn2cncn2)n1", "hERG current change (%, negative = inhibition) at 1uM": -0.43}, {"smiles": "COc1cc(NC(=O)CSc2nccc(C)n2)c(C(=O)O)cc1OC", "hERG current change (%, negative = inhibition) at 1uM": -7.07}, {"smiles": "CCOC(=O)C1=C(C)N(CC)C(=S)NC1c1ccc(Cl)cc1", "note": "(stereo not drawn)", "hERG current change (%, negative = inhibition) at 1uM": 4.93}, {"smiles": "O=C1/C(=C/C=C/c2ccco2)SC(=S)N1c1ccc(O)cc1", "hERG current change (%, negative = inhibition) at 1uM": -9.7}, {"smiles": "Cc1cccc(CS(=O)(=O)Cc2ccc(C(=O)NCCN3CCCCC3C)o2)c1", "note": "(stereo not drawn)", "hERG current change (%, negative = inhibition) at 1uM": -4.93}, {"smiles": "O=C(CCN1C(=O)/C(=C/c2ccc(F)cc2)SC1=S)NC1CCS(=O)(=O)C1", "note": "(stereo not drawn)", "hERG current change (%, negative = inhibition) at 1uM": -5.48}, {"smiles": "Cc1[nH]c2ccccc2c1CCN(Cc1cccnc1)C(=S)Nc1ccc(F)cc1", "hERG current change (%, negative = inhibition) at 1uM": 0.376}, {"smiles": "CCOCCCN1C(=O)C(=O)N(CC(=O)N2c3ccccc3NC(=O)CC2C)C1=O", "note": "(stereo not drawn)", "hERG current change (%, negative = inhibition) at 1uM": 18.3}, {"smiles": "Cc1ccc2c(Cl)cc(Cl)c(OCC(=O)Nc3ccc(C)c(S(=O)(=O)N(C)C)c3)c2n1", "hERG current change (%, negative = inhibition) at 1uM": -7.42}, {"smiles": "NS(=O)(=O)c1cccc(NC(=O)CSc2nc3ccc(Cl)cc3[nH]2)c1", "hERG current change (%, negative = inhibition) at 1uM": 16.1}, {"smiles": "Cc1scc(C(=O)NNC(=S)NCC2CCCO2)c1C", "note": "(stereo not drawn)", "hERG current change (%, negative = inhibition) at 1uM": 1.69}, {"smiles": "COc1ccc(C(=O)OCc2nnc(-c3ccccc3)o2)cc1S(=O)(=O)N1CCOCC1", "hERG current change (%, negative = inhibition) at 1uM": 4.07}, {"smiles": "CCN(C(=O)COC(=O)c1cc(-c2ccc(C)o2)nc2ccccc12)C1CCS(=O)(=O)C1", "note": "(stereo not drawn)", "hERG current change (%, negative = inhibition) at 1uM": -31}]}]}
